# ChEMBL document CHEMBL4888484, “Replenishing the malaria drug discovery pipeline: Screening and hit evaluation of the MMV Hit Generation Library 1 (HGL1) against asexual blood stage Plasmodium falciparum ,using a nano luciferase reporter read-out” (2022)
# About 540 (0.36%) of roughly 150,000 compounds showed an effect of 50% or more. The list shows a part of the results.
# System: Plasmodium falciparum
# Assay: Primary screen in NF54 nanoGlo assay, in single point, at 2uM, 72h; a lower Z score goes with more inhibition
# Format: functional, Erythrocyte
# Conditions: timepoint 72 hour
SMILES,% Inhibition,Z score
COc1ccc(-c2ccc(C(=O)N3CCCCC3)cn2)c(-n2cccn2)c1,-13%,1.7
COc1cccc(CN(C)CC2CCCC2)c1OC[C@@H](O)CN1CCOCC1,-1%,0.17
Cc1cc(C(=O)N[C@H]2CCN(Cc3cscn3)C[C@@H]2O)sc1C,-6%,1.2
O=S(=O)(C[C@H]1CCOC1)NCCc1ccsc1,-11%,1.82
O=C(Nc1ccc(OCC2CCCCC2)cc1)N1CC[C@H](O)C1,-6%,0.87
Cc1c(N[C@@H](C)C(=O)Nc2ccc3ccccc3c2)c(=O)n(-c2ccccc2)n1C,-1%,0.18
CCn1c(C)ccc(C(=O)NCCn2ccnn2)c1=O,-4%,0.77
Cc1ccccc1Nc1nc(N)nc(CN2C(=O)N[C@](C)(c3ccccc3Cl)C2=O)n1,8%,-0.93
Cc1ncccc1C(=O)N1CC[C@H](c2ccc(F)cc2)[C@@H](O)C1,-5%,1.02
CS(=O)(=O)CC(=O)c1ccc(C(F)(F)F)nc1,-4%,0.58
CCN1CCN(C(=O)c2cnc(-c3ccccc3)nc2)[C@H]2CS(=O)(=O)C[C@H]21,10%,-1.61
CCc1nc(CNc2ccc(Br)cc2C(=O)NC)n[nH]1,-17%,2.39
O=C1COc2ccc(N3C(=O)c4ccccc4C3=O)cc2N1,29%,-3.68
CC(C)(C)c1nc(Cn2ccnc2[C@@H](O)c2ccco2)co1,2%,-0.44
Cc1nn(C)c(S(=O)(=O)N(C2CC2)C2COC2)c1C(F)F,-13%,1.2
c1ccc2c(c1)C[C@H](CNCc1cc3ccccc3nc1N1CCCCC1)O2,-2%,0.23
CCN(C(=O)c1ccc(Cn2cncn2)cc1)c1ccccc1C,-7%,0.86
COc1ccc(CN2C(=O)O[C@H]3CN(c4cnccn4)C[C@H]32)cc1OC,-15%,1.29
Cc1cc(NC(=O)C(=O)N[C@@H](C)C(C)(C)C)n(C)n1,7%,-0.7
CC(C)(C)CN1CCN(c2cccc3c2C(=O)N(c2cccc(Cl)c2)C3=O)CC1,2%,-0.38
FC(F)(F)c1nnc(NCc2cccc(-c3nnc[nH]3)c2)s1,-5%,0.55

SMILES,% Inhibition,Z score
CN(C)C(=O)N1CCC[C@H]2C(=O)N(Cc3ccccc3)C(=O)[C@H]21,-9%,0.79
O=C(c1cnccn1)N1CC[C@H](c2nc(C3CC3)no2)C1,-7%,0.77
COc1cccc(C(=O)N2CCN(C(=O)CCc3scnc3C)CC2)c1,-1%,0.08
CC(C)N1C[C@@H](NC(=O)CCC(=O)Nc2cccc(O)c2)CC1=O,-13%,2.02
Cc1noc([C@H]2CN(C(=O)c3n[nH]c4ccccc34)CC23CCN(C)CC3)n1,-7%,0.8
Cc1ccc2c(n1)OCCN2Cc1nnc(C(C)C)n1C,-14%,1.27
COCCCN(Cc1c[nH]nc1-c1ccc(F)cc1)C1CCN(C)CC1,4%,-0.58
Cc1ccc(CCNC(=O)N2CCc3[nH]nc(C)c3C2)cc1,-8%,1.02
CN1CCCNC(=O)C12CCN(C(=O)c1ccc(Cl)s1)CC2,-11%,1.75
C[C@H]1CN(C(=O)c2cnn(-c3cccc(Br)c3)c2)c2cccnc2O1,-3%,0.5
CCOc1cccc(NS(=O)(=O)c2ccnn2C2CCC2)n1,-7%,0.79
N[C@@H]1CCN(C(=O)C2CC2c2cccc(F)c2)C1 (stereo partly drawn),-7%,1
O=S(=O)(c1ccccc1F)N1CCc2oncc2C1,-14%,2.14
O=C(c1ccnc(C2CC2)n1)N1CCc2[nH]c3ccc(F)cc3c2C1,-10%,1.37
COC(=O)c1cc(NCc2c[nH]nc2-c2cccnc2)ccc1C,32%,-3.62
Cc1c(C(C)N[C@@H]2C=C[C@H](CO)C2)cnc2ccnn12 (stereo partly drawn),-6%,0.75
Cc1n[nH]cc1-c1ccc(-c2csc(N)n2)s1,-2%,0.43
O=C(Nc1cccc(-c2cccnc2)c1)N1CCOC[C@@H](CO)C1,-14%,1.92
O=C(NCc1cccc(Cl)c1)c1cc(N2CCOCC2)nc2ccccc12,6%,-0.87
Cc1cccc([C@H](CNC(=O)c2[nH]cnc2C)N(C)C)c1,-5%,0.73
c1ccc(Cc2noc(CN3CCC4(CC3)OCCO4)n2)cc1,-2%,0.31

SMILES,% Inhibition,Z score
CCCC1(C2CCN(C(=O)c3ccccc3N(C)C)CC2)NC(=O)N(CC2CCCO2)C1=O (stereo not drawn),1%,-0.14
COc1cc(N2CCC(c3nnc(Cn4cncn4)n3C)CC2)nc(N)n1,6%,-0.83
O=C(NCCn1nnc2cc(S(=O)(=O)N3CCCC3)ccc21)Nc1ccccc1,33%,-3.77
Cc1ccc(Nc2n[nH]c(N)c2S(=O)(=O)c2ccccc2)cc1,31%,-3.55
Cc1cc(C(=O)N2CCC(F)(C(=O)N3CCOCC3)CC2)nn1C,-12%,1.58
CC(=O)Nc1cccc(NC(=O)CNC(C2CCCC2)C2CCCC2)c1,6%,-0.73
CS(=O)(=O)N1CC(C(=O)Nc2ccc3c(c2)OCO3)C1,-5%,0.77
COCC1CCN(S(=O)(=O)N2CCCC[C@@H]2CCc2ccccc2)CC1,-13%,1.5
C[C@@H]1Oc2ccc(NC(=O)C3(c4ccc(F)cc4)CCC3)cc2NC1=O,-7%,1.1
C[C@H](Nc1ccc(N2CCCC2)c(F)c1)c1nc(C2CC2)no1,-15%,2.74
O=C(c1ccc(Cl)cc1)N1CCCN(c2nc3ccccc3c3nnc(-c4ccccc4Cl)n23)CC1,7%,-0.65
CCCN(C[C@H]1CCCO1)C(=O)c1cc2ccccc2n1C,-4%,0.57
COc1cccc(C(=O)NCC(=O)N2CCC3(CCOCC3)C2)c1,-1%,0.13
Cc1cc(CN=C(N)N[C@@H](C)c2ccc(Cl)cc2Cl)no1,-6%,0.87
COCC1(CNS(=O)(=O)c2ccccc2)CCC1,6%,-0.8
CCOc1ncccc1CNC(=O)c1ccnc(-n2cnnc2)c1,-3%,0.48
Cc1ccc2c(n1)OCCN2Cc1nccs1,-10%,1.41
Cc1cc(C)nc(-n2nc(-c3ccc(Cl)cc3)c3c2NC(=O)C[C@@H]3c2ccc3c(c2)OCO3)n1,31%,-0.26
c1ccc(CN2CCN(CCN3CCO[C@H]4CCCC[C@@H]43)CC2)cc1,-3%,0.37
CCc1nc(CN2CCc3cncnc3C2)no1,-13%,2.27
CCCNC(=O)N1CCC[C@@]2(CCC(=O)N(Cc3cccnc3)C2)C1,-7%,1.21

SMILES,% Inhibition,Z score
Cc1ccc(-c2cn[nH]c2[C@H]2CCCN(C(=O)c3noc(C)c3CO)C2)cc1,-14%,2.78
COCC(=O)N1CCC(C(=O)N(C)[C@@H](C)c2cc(-c3ccccc3)[nH]n2)CC1,25%,-3.42
CCc1oc2c(NC(=O)N[C@H]3CCCNC3=O)cc(Cl)cc2c1C,3%,-0.58
CCOC(=O)N1CCN(C(=O)c2cn3ccnc(-c4ccc(OC)cc4)c3n2)CC1,-4%,0.68
Cc1nc(N2CCC[C@H]2c2nncn2C)c2cnn(C)c2n1,-5%,0.87
CCOc1ccc(-c2cc(C(=O)Nc3ccccc3C(=O)c3ccccc3)no2)cc1,4%,-0.51
O=C(Cn1c(-c2ccco2)nn(-c2ccc(Cl)cc2)c1=O)NCCCO,-8%,1.64
C=C(C)C[C@H](C)C(=O)Nc1cc2sc(=O)n(C)c2cc1C,-3%,0.46
Cc1cc(NC(=O)CN2CCC(n3nc(C(F)(F)F)n(C)c3=O)CC2)no1,-12%,1.32
COC1(OC)CCOC[C@@H]1NC(=O)c1cc2c(C)c(C)ccc2[nH]1,-4%,0.41
Cc1cccc(C)c1NC(=O)c1cccc(NC(=O)c2ccncc2F)c1,-4%,0.48
CN(Cc1ccccc1)C(=O)[C@H]1CCCN(C2CCN(Cc3ccncc3)CC2)C1,2%,-0.38
COc1ccccc1Nc1c(-c2ccc3c(c2)OCO3)nc2cnccn12,5%,-0.6
CN1CC(NC(=O)C2(C)CC2(Cl)Cl)CCC1=O (stereo not drawn),8%,-1.13
CC[C@H](NC(=O)c1ncccc1O)c1ncccc1C,-19%,1.75
Cc1noc(C2CCN(C(=O)[C@H](C(C)C)N3CCCCC3)CC2)n1,3%,-0.45
O=C(CCc1ccncc1)NC[C@@H](c1ccc(F)cc1)N1CCCC1,-11%,1.61
CCN1CCC[C@@H]1CNC(=O)c1c(C)noc1C,-1%,0.21
Cc1csc(CNC2CCOC2c2ccccc2)n1 (stereo not drawn),-6%,0.58
Cn1ncc(N2CCO[C@@H](CCNc3ncnc4c3CCC4)C2)cc1=O,-11%,2.21
CC/C=C\CCCN1C[C@@H]2CN(C)C[C@]2(C(=O)O)C1,9%,-1.27
